From the supplement of paper PMC11417369
The other results are listed elsewhere or left out.

These sequences were tested on PF3D7_0420300 AP2 domain 1 (GST-tagged) (assay: gcPBM binding intensity (ln(normalized median fluorescence intensity)); higher = stronger DNA binding).
Summary of the method: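 Probes on an Agilent 4 × 180k array were primer-extended, double-stranded and 36 bp long, taken from intergenic genomic regions, with negative controls added. GST-tagged P. falciparum DNA-binding domains from E. coli, about 25 μg on average, were applied to the array for 1 h in 1× PBS containing 1% milk, 0.2 mg/ml BSA, 0.5% salmon testes DNA and 0.03% Triton X-100. Binding intensity, obtained after Alexa488 anti-GST antibody detection and a 488 nm scan, is the highest Masliner-normalised natural-log median intensity across replicate spots of either probe orientation.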

Row | Sequence | gcPBM binding intensity (ln)
1 | TTTTTCTCTCTCTTATTATACAACAACAAAAAAAAA [GTGCAC_negctrl_site178] | 8.79
2 | AGAAATATATATATATATATATGTGACAATATTTGT [TGCATGCA_negctrl_site282] | 9.45
3 | ACAAAAAGGTAATTTACACACTGCATATAGGAATAA [CACACA_site2929] | 9.57
4 | TTTATATTCTTAAGTGTGCACTATATATATATATAT [GTGCAC_site9719] | 9.33
5 | ACCCTATATGTAACTACACACCGCATATTGTTTACT [CACACA_site3071] | 10
6 | TTTGTTCATATTATTGTGCACTTAAACGTAACAAAA [GTGCAC_site9505] | 9.08
7 | ATGTATGTATATACTTGTACATATTCATATTAGTAT [XGTACX_site1118] | 9.18
8 | AATGTAGCATTTTATCGTACACTTAATACAAAAAAG [XGTACX_site6214] | 8.97
9 | GATATTGAGAAAGGGTGTACAAGATATTATACTATA [XGTACX_site3598] | 9.26
10 | AATAGAAAAAAATAAGTGCATTTTGGTATTCATCAT [GTGCAC_site9614] | 9.31
11 | AAATTTATATTCATTTGTACGTAATTTAAATTATAC [XGTACX_site5870] | 9.15
12 | ACATAAATAATAAAAACACACATATGTACATATATA [CACACA_site1913] | 9.75
13 | TTTTATGTAATTATTTGTACATATGCCTCTTAAACT [XGTACX_site748] | 9.19
14 | AAAAAAAAAAAGCACACACACATATGTGTATTTATA [CACACA_site6578] | 9.93
15 | ACAAAATATACAAAATGTACAAAATTTACAAAATGT [XGTACX_site3544] | 9.32
16 | TACTAGCAAATACATACACACACACCCATATACATA [CACACA_site9163] | 10.1
17 | ATGCACTCATTGTGCACACGCATATTACGAAAAGAA [CACACA_site2638] | 9.24
18 | AAAAAAAAAAAAAACACACACACACCCATACAAAAT [CACACA_site1446] | 10.1
19 | AATAAATAAAAAACATGTACAAATATAATATAGCAT [XGTACX_site6429] | 9.82
20 | AAGATTTGAAAAAATACACACAATAAAAAAATAAAA [CACACA_site3281] | 9.67
21 | TATATATATATGTGTATACACACCTGATAAAGGTAT [CACACA_site2653] | 9.42
22 | TATACATATGAAAATACACACATACATACCTATATA [CACACA_site6888] | 9.68

Row | Sequence | gcPBM binding intensity (ln)
23 | TATTTAACACCTTATACACACTTTCTTCCTTTTTTA [CACACA_site4590] | 9.65
24 | TAATTGTACGCCAATACACACAGAATTATAATGTAG [CACACA_site6201] | 9.54
25 | TAAAATATTACGTGTACACATAAATAAAAATAAAAA [CACACA_site5066] | 9.26
26 | TTTTATATTCCACAAAAAATTATATAATAATAGAAC [CACACA_negctrl_site1741] | 9.18
27 | GTAATATATACAAAATGTACAAAACAATAACATGAT [XGTACX_site8575] | 9.63
28 | ATCCAAACAAATAAAACATGCATAATATATATATAT [TGCATGCA_site766] | 9.62
29 | CTCAAATAATTTTTTACACACATTATTTGAAATAAG [CACACA_site1290] | 9.37
30 | ATGCTTTTATAAATAATTAAAAAAAAAAAAAAAAAA [TGCATGCA_negctrl_site533] | 8.33
31 | TTTTTTTTTAATATTTGTACACAACATGAAACATTT [XGTACX_site473] | 8.97
32 | AAAAGGAATATAATCATTCAAAAATATAATATATAT [GTGCAC_negctrl_site551] | 9.17
33 | TTACATAATTTCTGCTGTACCAATTTTGAGAAGTTG [XGTACX_site4023] | 9.16
34 | ATGTAAATATATATATGTACTAATTAGTAGTTTACG [XGTACX_site6271] | 9.32
35 | TCCTTATTACTTTTTTAAGTCGTAATGAAAGAAAAA [CACACA_negctrl_site1497] | 8.62
36 | TTTTATAAATTATAATTCTATTATCTGTTCTTTTTA [TGCATGCA_negctrl_site487] | 9.25
37 | CATACATACATACATACACACATACAGATATATATA [CACACA_site4890] | 9.84
38 | ATCTTAACTCTATGCACACATAAAAGTATATAAATA [CACACA_site2256] | 9.32
39 | ATCATGTTATATACATGTACATATATATATATATAA [XGTACX_site609] | 9.24
40 | TTTTATTTTTTTAAATGTACACATATTAATGTAAGG [XGTACX_site319] | 8.91
41 | ATCATCCAAGATCTTACACACATATTAAATAAATAA [CACACA_site1473] | 9.64
42 | CACATATAGTTATATGCACACATCTTACACATCTAT [CACACA_site5937] | 9.6
43 | AACACAGATAAATTAACACACACACCCATATATATA [CACACA_site9310] | 10.1
44 | TAGCTTATTAATATCATACACACATAGATATATTTA [CACACA_site3105] | 9.43

Row | Sequence | gcPBM binding intensity (ln)
45 | ATGAAATATCGGAACGCACACATAAATATATTTATA [CACACA_site2670] | 9.58
46 | CAATTTGGGGTGTACACACACCTTATTTAAATTAAA [CACACA_site6663] | 9.29
47 | TTGAACTCTCTTACGCGTACGTGTTATTATGAAAAT [XGTACX_site6265] | 9.33
48 | TATATATATATATGTGCATGTAATGATTCAGCATCT [TGCATGCA_site803] | 9.43
49 | ATATGTTTTGTTTACGTGCACTGCTTTGTTTATATA [GTGCAC_site9622] | 9.92
50 | AGCATATTATCATATTGTACATATTATAATATATAT [XGTACX_site3907] | 9.25
51 | ATTTCTCAATCTTAATGTACAAAAAAAAGGAAAAAG [XGTACX_site1210] | 9.02
52 | TAAAAATTTTAATAAACACACAATGAGATATTGAAT [CACACA_site5704] | 9.36
53 | AGCAAATCAGATAGTAGTACATTTAAATTAGACTTT [XGTACX_site4172] | 9.19
54 | TTTTTAATTATCTTTTCCCATGGTTTCTCCGTTTTT [XGTACX_negctrl_site39] | 9.45
55 | CAAAATAAAAATAACACACACATTTATATATATACA [CACACA_site1190] | 9.98
56 | ATATTCTTTTTATGTGGTACTAATTTTTTTTTTTTA [XGTACX_site3791] | 9.59
57 | TAAAACATAAGAGACACACACACATATATATATATA [CACACA_site3643] | 9.9
58 | TTTTTAAAACATCACTGTACCCGTTATGGTGAACAT [XGTACX_site3483] | 9.06
59 | AGTAAAAGAAAGCACACACACATGTATATAGGTATG [CACACA_site7759] | 9.99
60 | TTTTTAAATAATTGAAGTACACATTTCTCTAAGTTG [XGTACX_site2846] | 8.97
61 | TTTTTTTTTTTGTTTAAACACACGAGCTTTCTTCTT [CACACA_site4085] | 9.55
62 | CATGTATTTTATATTACACACTAATATTATAGATAT [CACACA_site6819] | 9.33
63 | AAACATATAAACATATGTACATATAAACATATATAC [XGTACX_site5026] | 9.42
64 | TTAAAAAAAGAAAAAAAAAAAAAAAAAAAAAAACAT [CACACA_negctrl_site475] | 9.55
65 | TATAAAAATATTTCTACACACATTAATATTTATATA [CACACA_site6661] | 9.41
66 | TATTATATTCTGCTTACACACATATATATATATATA [CACACA_site3060] | 9.72

Row | Sequence | gcPBM binding intensity (ln)
67 | GTGATAATTGCTTGGTGTACCCACATATATATATAT [XGTACX_site1636] | 9.52
68 | GTTCTAAATATTATTGCATGTTGCACGTTTCTCTGT [TGCATGCA_site159] | 9.41
69 | AAAAGATATATTATATGTACTAATTATATGATAAAT [XGTACX_site4192] | 9.33
70 | AAAGAGAAATTTAAATGTACATTTGTTCTAAGTGTA [XGTACX_site3602] | 9.14
71 | AATTATGAAAAATCAAGTACAAACAAAATCATAATT [XGTACX_site5665] | 9.49
72 | CATACACCCATACATACACACATACATATATATATA [CACACA_site8591] | 9.7
73 | ATATAATGTTTCACATGTACAAACAACACAAAAAAA [XGTACX_site1899] | 9.21
74 | TTTTTTTTTTTAAATTGTACTTATTTTATATTATAT [XGTACX_site1077] | 9.19
75 | AATGTCATGATACATACACACACATACACATACACA [CACACA_site8665] | 9.96
76 | TATTAAATATTGTAATGTACATATATAATATAATAT [XGTACX_site1809] | 9.11
77 | ATATCTTATTTTCCTTGTACTTATTTCATAATTACA [XGTACX_site3894] | 9.56
78 | CAATAAACCATTTTTTGTACATAAAAATAGGTATTG [XGTACX_site1892] | 9.1
79 | AATTTCCCATATTACACACATACTATGATATATAAA [CACACA_site3834] | 9.56
80 | TAAATATGTATAAATTGTACAAAATATATGAATAGT [XGTACX_site5659] | 9.49
81 | AGTATACGCAAACACACACACACAAAAAAAAAAAAA [CACACA_site426] | 9.88
82 | TATTATATTTATATTTGTACTTAAAATATTATACAC [XGTACX_site2881] | 9.13
83 | AAATAAGAAAATCATAGTACATAGGAATAGAAGAAC [XGTACX_site3135] | 9.9
84 | TACGTTCTGATATATACACACCTGGTATTAATTATG [CACACA_site7113] | 9.73
85 | AGAAAAATTATATATACACACTTATATTTATATATA [CACACA_site5555] | 9.3
86 | TTATCTTAATTGTGATTATAAAGATATTCTTTCTAT [GTGCAC_negctrl_site410] | 9
87 | CAACCTCATAATATTTAACACACAAAATTATATGTA [CACACA_site8496] | 9.45
88 | CATTTAGAATAAGGCACACATAAAGAACACTTTCCA [CACACA_site130] | 9.36
